From PubChem BioAssay AID1508624 (National Center for Advancing Translational Sciences (NCATS), 2021)
The whole screen tested about 48,000 compounds, of which about 120 (0.25%) were called active. Another 4% or so got no clear call; they are omitted. Calls come from the whole dose curve; as a rule, active = well fitted activation curve with a large enough effect; inconclusive = small, poorly fitted or top-dose-only effect, or another doubt; inactive = no such curve, though single readings can be large or run the other way. The list shows a part of the results.

Assay: Primary qHTS for Identification of Small Molecule Activators of Huntingtin-Antisense Promoter Activity; note: nearly all actives have a fitted effect of over 55% in size
Settings: HEK293 HTT-AS promoter firefly luciferase reporter, 24 h; series mostly up to 57.5 µM; activity change, positive = activation: at the top concentration
Procedure, shortened: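 HEK293 cells carrying firefly luciferase reporters were seeded at 2,500 per well in Opti-MEM and cultured for 24 h. They were then treated with compounds at up to 57.5 uM final for 24 h at 37 degrees C before Dual-Glo luminescence readout.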

Activity change, positive = activation, inactive:
COc1cc(OC)c(NC(=O)N2CCOc3ccc(C)cc32)cc1Cl -28.4%
COc1ccc(Cn2nnc3c(=O)[nH]c(C4CCCN(C(=O)c5ccccc5Cl)C4)nc32)cc1OC (stereo unspecified) -1.4%
N#Cc1cc2c(=O)n3ccccc3nc2n(-c2nnc(SCc3ccc(F)cc3)s2)c1=O -3%
COc1ccc(CNC(=O)c2oc3c(c2C)-c2nn(Cc4ccccc4Cl)cc2CC3)cc1 -37.1%
Cc1c(C(=O)NCCN(C)C)oc2c1-c1nn(Cc3ccccc3Cl)cc1CC2 0.608%
COc1ccccc1-c1c(C)nn2c(N3CCN(c4ccc(Cl)cc4)CC3)cc(C)nc12 -20%
CCOC(=O)c1ccc(Nc2nc(C)cc(C)n2)cc1 3.05%
CC(Sc1nc(-c2ccccc2)c(C#N)c(=O)[nH]1)C(=O)Nc1ccc(F)cc1 (stereo unspecified) -13.2%
COc1ccc(N(CC(=O)N2CCN(c3cc(C)ccc3C)CC2)S(=O)(=O)c2c(C)noc2C)cc1 -24.4%
O=C(NC1CC(=O)N(c2ccccc2)C1)C1CCCC1 (stereo unspecified) -8.72%
Cc1ccc2c(c1)c(=O)c1ccccc1n2CCCC(=O)Nc1ccc(F)cc1F -12% [at 11.5 µM, percent change from vehicle, -100% = no light]
COC(=O)c1ccc2nc(C)cc(Nc3ccc(O)cc3)c2c1 -15%
CCOC(=O)c1cc(-c2ccc(F)cc2)n(CCC(=O)Nc2ccccc2OC)c1C -25.4%
CC(Sc1ncc(S(=O)(=O)c2ccc(C(C)C)cc2)c(N)n1)C(=O)Nc1ccccc1 (stereo unspecified) -46.6%
COc1ccc(NC(=O)Cn2c(=O)n(-c3ccc(Cl)cc3)c(=O)c3c(C)c(C(=O)N(C)C)sc32)cc1Cl -7.7%
Cc1ccc(CSc2nc(=O)c3c(C)cc(C)nc3n2C2CC2)cc1 -36.6%
CCOC(=O)c1ccc(NC2=CC(c3ccc(Br)cc3)N(c3ccc(C(=O)OCC)cc3)C2=O)cc1 (stereo unspecified) -12.4%
COC(=O)c1cc(Cl)c(NC(=O)/C=C/c2ccc(Cl)cc2Cl)cc1OC 1.58%
CCOC(=O)c1ccc(NC(=O)C(=O)NCc2ccco2)cc1 20.4%
COc1cccc(Cc2nc3ccccc3nc2SCC(=O)N2CCc3ccccc32)c1 -6.1%
Cc1cccc(Oc2nc3c(C)cccn3c(=O)c2/C=C(\C#N)c2nc3ccccc3s2)c1 5.21% [at 11.5 µM, percent change from vehicle, -100% = no light]
O=S(=O)(c1ccccc1)c1nc(-c2cccc(Cl)c2)oc1NCc1ccccc1 -20.5%
COc1ccc(Br)c2c1-c1nc(NC(=O)c3ccccc3SC)sc1C2 -16.4%
CCOc1ccc(N2CC(c3nc4ccccc4n3CCCOc3ccc(OC)cc3)CC2=O)cc1 (stereo unspecified) 3.62%
COCCNC(=O)CSc1nnc(-c2ccc(OC)c(OC)c2)c(-c2ccc(OC)c(OC)c2)n1 1.58%
COC(=O)c1c(NC(=O)c2ccc(S(=O)(=O)N3CCCCC3C)cc2)sc2c1CCN(C(C)C)C2 (stereo unspecified) -11.3%
CCOC(=O)N1CCc2c(sc(NCc3ccc(OC)c(Br)c3)c2C(=O)Nc2cc(OC)ccc2OC)C1 -18%
CCOC(=O)c1ccccc1NC(=O)N(Cc1ccc(C)cc1)Cc1cccn1-c1nnc(N2CCCC2=O)s1 -11%
Cc1ccccc1-c1noc(CSc2nnc(Cc3ccccc3)n2-c2ccc(F)cc2)n1 -46%
COc1ccc(-c2noc(CSc3nnc(-c4ccncc4)n3-c3ccccc3)n2)cc1 -42%
C#C[C@]1(O)CC[C@@H]2[C@@H]3CCC4=CC(=O)CC[C@@H]4[C@H]3CC[C@@]21CC -27.7%
CCC(C)n1c(=N)c(S(=O)(=O)c2ccc(C)cc2)cc2c(=O)n3cc(C)ccc3nc21 (stereo unspecified) 0.108%
COc1cccc(NC(=O)Cn2c(=O)n(CCCC(=O)NCc3ccc4c(c3)OCO4)c(=O)c3ccccc32)c1 -5.29%
Cc1ccc(CNC(=O)c2c(-c3ccccc3F)noc2C)o1 -21.2%
Cc1ccc(-n2ncc3c(NNC(=O)c4ccccc4C)ncnc32)cc1 -10%
COc1ccc(-c2c(C)nn3c(N4CCC(C(=O)NCCC(C)C)CC4)cc(C)nc23)cc1OC -10.8%
CC(C)c1ccc(C2c3c(-c4ccccc4O)n[nH]c3C(=O)N2CCc2ccccc2)cc1 (stereo unspecified) -57.3%
CC(C)CCn1c(SCc2ccc(F)cc2Cl)nc2ccsc2c1=O -4.02%
CC1=C(C(=O)Nc2ccccc2)C(c2ccc(C(=O)O)cc2)n2nc(SCC(=O)c3ccc(C)cc3)nc2N1 (stereo unspecified) 1.94%
CCc1ccc(-c2[nH]c3c(c2-c2c(-n4cccc4)n(C)c(=O)n(C)c2=O)c(=O)n(C)c(=O)n3C)cc1 4.24%
Cc1ccc(Cn2c(=O)c3c(nc4n3CCN4c3cc(C)cc(C)c3)n(C)c2=O)cc1 12.7%
CCN(CC)CCn1c(=N)n(CC(O)COc2ccccc2C)c2ccccc21 (stereo unspecified) -37.3%
COc1ccc(-c2nc(CCNC(=O)c3cc(OC)c(OC)c(OC)c3)cs2)cc1 -17.8%
COCCCNC(=O)c1ccc(NC(=O)N2CCCCc3ccccc32)cc1 -18%
CCCN1CCN(CC2=C(C(=O)OCC)C(c3ccc(Cl)cc3)NC(=O)N2)CC1 (stereo unspecified) -7.72%
COc1ccc(Cl)cc1NC(=O)CCCn1c(=O)c2cccn2c2cccnc21 -23.5%
COc1ccc(CNC(=O)Cc2c(C)c3c(cc(C)c4c(C)coc43)oc2=O)cc1 -2.32%
C#CC1(O)CC[C@H]2[C@@H]3CCC4=CCCC[C@@H]4[C@H]3CC[C@@]21C (stereo partly specified) -9.05%
CCN1CCC(N(Cc2ccc(F)cc2)C(=O)Nc2cccc(C(F)(F)F)c2)CC1 -25.5%
CCc1ccccc1Nc1nn2c(=O)c3ccc(C(=O)Nc4ccc(OC)cc4)cc3nc2s1 -28%
O=C(CSc1nc2ccccc2nc1Cc1ccccc1)N1CCN(c2ccccc2)CC1 3.49%
Cc1cccc(NC(=O)NCCOCCn2c(=O)oc3ccccc32)c1C -10.3%
COC(=O)c1nnn(CC(=O)NC(=O)Nc2ccccc2F)c1C(=O)OC 18.4%
Cc1noc(NS(=O)(=O)c2ccc(NC(=O)c3ccc(Br)cc3)cc2)c1C 7.32%
Cc1c(Cl)cccc1NC(=O)c1ccc2nc(C(C)C)oc2c1 -17.6%
COc1ccc(N2CCN(C(=O)c3cc4cc5ccc(Cl)cc5nc4o3)CC2)cc1 -1.51%
COc1ccc(C)cc1S(=O)(=O)NCC(c1ccc(N(C)C)cc1)N1CCc2ccccc21 (stereo unspecified) -21.3%
O=C(O)c1ccc(N2C(=O)c3[nH]nc(-c4ccccc4)c3C2c2cccc(F)c2)cc1 (stereo unspecified) -12%
CN(c1ccccc1)c1ncnc2c1cnn2C 0.429%
Cc1cc(NC(=O)N2CCC(CN3CCOCC3)CC2)ccc1Br -7.45%
COc1cccc(C2C(=O)N(C3CCCCC3)CC(=O)N2Cc2ccc(Cl)cc2)c1 (stereo unspecified) -19.7%
Cc1ccc(NC(=O)Cn2c(=O)oc3cc(S(=O)(=O)N4CCC(C)CC4)ccc32)cc1Cl -45.4%
Cc1ccc2c(c1)C(=O)OC(C(=O)Nc1ncc(Cc3ccccc3)s1)C2 (stereo unspecified) 1.52%
CCc1ccc(C2C(C(=O)Nc3ccc(Cl)cc3)=C(C)Nc3ncnn32)cc1 (stereo unspecified) -25.2%
CCNc1nc(Oc2ccc(=O)n(-c3ccccc3)n2)nc(N(C)C)n1 -9.79%
COc1ccc(CCC(=O)NCc2nc3cccnc3n2Cc2ccccc2)cc1 -9.2%
CC(C)Oc1ccc(C(=O)Nc2ccc(-c3nc4ccccc4s3)cc2)cc1 15.8%
Cc1ccccc1Cn1c(CN2CCN(c3cc(Cl)ccc3C)CC2)nc2c1c(=O)[nH]c(=O)n2C -4.45%
O=c1cc[nH]c(=O)[nH]1 1.63%
Cc1ccc(Cl)cc1NC(=O)CCCN1C(=O)CCn2nc(-c3cn(C)c4ccccc34)cc21 -19.6%
CCOc1ccc(CCNC(=O)CCn2c(=O)c3cccn3c3cccnc32)cc1 -15.8%
COc1ccc(NC(=O)C2CCC(CNS(=O)(=O)c3ccc4c(c3)C(C)(C)C(=O)N4C)CC2)cc1 (stereo unspecified) -20.5%
CCOc1ccc(Nc2ncnc3c2nc2n3CCCCC2)cc1 -10.6%
Cc1cccc(N2CCN(C(=O)Cn3ncc4c3-c3ccccc3OC4)CC2)c1C -31.9%
Cc1noc(-c2ccc(CSCCC(=O)O)cc2)c1NC(=O)OC(C)c1ccccc1Cl (stereo unspecified) -24.4%
Cc1cc(CC(=O)O)c(C)n1-c1ccc(Cl)cc1 -6.42%
O=C(Nc1nnc(S(=O)(=O)N2CCCCCC2)s1)c1cccc(Br)c1 -86.4%
O=C(COc1ccccc1)Nc1ccc2nc(SCC(=O)N3CCc4ccccc43)sc2c1 -18.2%
CCOC(=O)N1c2ccc(C(F)(F)F)cc2[C@@H](N(Cc2cc(C(F)(F)F)cc(C(F)(F)F)c2)C(=O)OC)C[C@H]1CC -11.7%
N#Cc1ccccc1Cn1c(SCC(=O)Nc2ccc(F)cc2)nc2ccccc21 -17.5%
Clc1cccc(N2CCN(c3c4c(nc5nncn35)CCC4)CC2)c1 -33.6%
Cn1cnc(S(=O)(=O)N2CCC(C(=O)Nc3ccc(C#N)cc3)CC2)c1 -9.16%
CC(=O)c1ccc(NC(=O)c2nc(-c3ccccc3)n(-c3ccccc3Cl)n2)cc1 -22.3%
COc1ccc(CNCCCSc2nnnn2C)c(OC)c1 -3.42%
CCc1nnc(SCc2ccc(F)cc2Cl)c2cc3sc(C)cc3n12 -2.13%
CCOc1cc(C(=O)Nc2ccc(-c3nc4cc(Cl)ccc4o3)cc2)cc(OCC)c1OCC 1.04%
CC(=O)c1cccc(-n2c(=O)c3c4c(sc3n(CC(=O)c3ccc(Cl)cc3)c2=O)CN(C(C)=O)CC4)c1 -2.52%
Cc1cccc(C(=O)N(Cc2ccco2)Cc2ccccc2F)c1 -39.7%
COc1ccc(CNC(=O)CCCc2nnc3n(CCC(C)C)c(=O)c4sccc4n23)cc1 -7.38%
Cn1cc(C(=O)NCCc2ccc(Cl)cc2)c(=O)c2cc(S(=O)(=O)N3CCOCC3)ccc21 26.7% [at 11.5 µM, percent change from vehicle, -100% = no light]
O=c1[nH]c(C2CCCN(S(=O)(=O)c3ccccc3Cl)C2)nc2c1nnn2Cc1ccc(OC(F)(F)F)cc1 (stereo unspecified) 0.31%
